Assay results from the supplement of paper PMC3334620.
Whole data set: some 33,000 sequences, median “E-score (-0.5 to 0.5)” near -0.013, cut for the highest 2% near 0.3. The list shows a part of the results.

target: T1, Msn1 (UniProt P22148); assay: PBM E-score (8-mer binding enrichment) (E-score (-0.5 to 0.5)); higher = stronger / more preferred TF binding; most listed sequences are background and not binding sites; conditions: protein concentration: 200 nM; construct: GST-full length
T1 sequence: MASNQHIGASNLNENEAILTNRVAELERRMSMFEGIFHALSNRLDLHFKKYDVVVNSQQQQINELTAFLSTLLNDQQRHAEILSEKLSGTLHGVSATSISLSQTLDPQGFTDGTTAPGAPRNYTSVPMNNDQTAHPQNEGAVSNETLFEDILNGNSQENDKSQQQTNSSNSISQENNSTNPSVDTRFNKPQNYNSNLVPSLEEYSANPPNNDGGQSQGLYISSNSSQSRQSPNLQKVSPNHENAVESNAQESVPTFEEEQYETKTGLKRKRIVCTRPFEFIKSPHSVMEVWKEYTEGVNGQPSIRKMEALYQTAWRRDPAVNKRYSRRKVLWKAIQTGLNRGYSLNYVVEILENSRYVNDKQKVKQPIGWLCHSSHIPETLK
Procedure: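 Universal 'all 10-mer' protein binding microarrays (Agilent AMADID 015681) probed with GST-tagged S. cerevisiae TFs (full-length or DBD) made by in vitro transcription/translation (PURExpress), about 100-200 nM. Bound TF was detected with fluorescent anti-GST. Each ungapped 8-mer (which stands for itself and its reverse complement) is scored by the PBM enrichment score (E-score), a modified Wilcoxon-Mann-Whitney statistic from -0.5 to +0.5, computed with the Universal PBM Analysis Suite. Scale: above 0.35 generally sequence-specific binding.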

Sequence	PBM E-score
CTCAGTGC	-0.0812
CGGGTACG	-0.269
CTTAGCCA	-0.0398
AAAAGATT	0.0785
CAGAGCTA	-0.28
CGCACAAG	0.0585
CACATTTC	0.0909
CAATACAA	0.0229
GGTGCCTA	-0.107
CTAGCGCA	-0.153
CTCGGGAA	0.0364
AGTAACAC	-0.0452
TACATGTA	0.247
CCCCCCAC	-0.373
CCAGACTA	0.11
ATGGGACC	0.00395
CCAATTAG	0.128
GTCGGCCA	-0.298
CCCTAAAA	-0.0623
ACCAAGCG	-0.17
CCGATCAA	-0.0451
GGATGAAC	-0.0703
GGGCGGAA	-0.1
ATCGGAAG	0.031
TAATAGTA	0.156

Sequence	PBM E-score
CCTAGGAG	-0.068
AACGGACT	-0.00389
ACGGCACA	-0.00613
GTTTATTA	0.174
GTCCTCCA	0.145
ACATCCAA	0.141
CGATTGCG	-0.0545
CCTTTACC	-0.116
ACTTGATA	0.27
CTGCGCCC	-0.219
ATGTAGTG	-0.0691
GTTATAAA	0.205
CTCACAGA	0.0295
GTTAGTAA	0.0398
AAGACTTG	0.134
AGTTGCAG	-0.128
AGCCATAG	-0.0834
AGTGGTGA	0.0265
ACAAAACA	0.278
CCGGACGC	0.13
CTTCCCCC	-0.302
ATGCATAC	0.0529
AACTCCCG	-0.0488
TTACTCAA	0.0639
CATGCCAA	0.01

Sequence	PBM E-score
ATGAAAGA	-0.00032
ACTCGGCC	0.109
GAGCCATC	-0.171
CCACGAAA	0.171
CCCTCCCG	-0.157
AAATAATC	0.0127
ACGCGTTC	0.122
CGACTCCG	-0.0986
TGGGCAAA	0.0303
AAAGCGCA	-0.153
CTAAAATA	0.0361
GTAAAGCA	0.0239
ATAAATAC	0.227
CCGGGCCA	-0.114
CTGAGTGC	-0.0601
CTACTAAA	0.057
CTTGGTTA	0.114
GACCCGTA	-0.049
CGAAACGA	0.128
AAGTTTTG	-0.0744
GCGGGCGA	0.0449
AGATCTAC	-0.165
ATAGATGC	-0.054
CAGTCGGA	0.0274
ACCTTATG	0.051

Sequence	PBM E-score
GTCAATAA	0.0557
TATGATGA	0.126
CGCTACAA	-0.117
CGGAGATC	-0.037
CAACTCTA	0.152
CGGACGGC	0.0619
AGTTCGCC	0.00171
ATGTGGCA	0.00204
AATGCTAG	-0.0942
AAGCGATA	-0.098
AAGTAATG	0.155
CCGACCTC	0.037
TGTGGGAA	-0.163
CTCAGACA	0.317
AATCATTG	0.0726
AGCCTGAT	0.0744
ATACGCAC	-0.058
ATCGTCCA	-0.0991
GGCGTCGA	0.0944
ACTAATGC	0.178
AAGAACTG	-0.0361
ACGCCGTC	0.0507
GGATTTAC	0.0787
CCCCACGG	-0.321
GAATCTCA	-0.11

Sequence	PBM E-score
GAAGGTAA	-0.0079
CTCAGATC	0.0872
ATATCCTA	0.0467
ACGTGCGG	0.041
CTCTTCTA	-0.0621
CACTATAG	0.115
GAGAAGGA	-0.27
AGCTACTC	-0.202
GCTACATA	0.0565
CCACGACC	-0.268
CGGTCATC	-0.116
AGCCACTA	-0.0424
CACATTAC	0.0152
AAAATGGG	0.182
AGCTCGGC	0.0546
AGTCCAAA	0.214
ATTGTTGC	0.0748
ACTTCAAT	0.0828
CACCCGAC	0.0109
CTGGCGTC	-0.176
CCTTTTCA	0.072
AAGCGCCA	-0.303
ATTCCCTA	-0.0665
AATAGTCT	0.0101
AGGCCACT	-0.264

Sequence	PBM E-score
TCGCAGAA	-0.0578
ACAGTTTC	0.0802
TACCAAGA	0.0729
ATGTCGGC	0.121
AACTGCCC	-0.105
GCAGTTGA	0.0439
CCCCAGCA	-0.218
CCAAAACG	-0.0791
CCACAGGA	-0.0854
AAGAGCCC	-0.133
TACACCAA	-0.0113
AGATGTCA	0.309
ACGTACAC	0.186
TATTATAA	0.214
AAAGGGCT	-0.0283
ACGCGCGT	0.236
AGCCTCGG	-0.153
GGCTAAGA	0.0666
AGCGCCGG	-0.0505
AACCAGTT	0.0337
AGACATTG	0.402
ACGGAGTA	0.094
TACTGAAA	0.155
GCCCCGAC	-0.0904
CGTACACC	-0.0293

Sequence	PBM E-score
AAGCTCCC	-0.256
GGTTATGA	-0.0333
GGTGATCA	-0.123
CAGGCTCA	-0.0362
ACTCGCAG	-0.138
TTATAAAA	0.288
GAACTGTC	0.0776
CGAACTCG	-0.00874
AGGCGATG	-0.136
GAGAGGAC	0.0249
CCTCAGCA	-0.159
CCGTCGTA	0.031
CCTTAGAG	-0.174
AACTCCCC	-0.152
TCTACTCA	-0.163
CCTATTCA	-0.0902
CACTTGGC	-0.113
CCGTAATC	0.0367
AAGACCCT	-0.134
AAGGACCC	-0.0634
ACGAGATA	0.13
GAAAATCC	0.102
GTATGGAC	0.335
GCGCACGA	-0.0418
GGATATCA	-0.043

Sequence	PBM E-score
TCTCCACA	-0.0349
CACTGCGG	-0.0628
CAGAGGCC	-0.33
AACAATGC	0.0219
CTGAGTAC	-0.0547
GCTCGGCA	-0.13
CGTCTAAA	-0.0424
CCGGCATA	0.054
GGTGCGAC	-0.168
CAATCTAC	-0.26
GCTCAATA	-0.00623
CCAGATAC	-0.0938
AGGCCTAG	-0.187
AGTTCAAA	-0.0504
AACCCTAT	0.0774
CAGAATAA	0.0293
ATAAATAG	0.0654
CTGCAGAC	0.135
GCATTATA	0.0347
AAGTTCGC	0.0268
ACTGCCCC	-0.102
GGAATGAA	0.0811
AAGTACAT	0.356
TCAGTAGA	0.143
TCCTGTCA	0.049

Sequence	PBM E-score
CTAGGAAG	0.00053
CACCCGTG	-0.213
CGTGGTTC	-0.111
AATTCCCC	-0.173
CTTTAGAC	0.0689
GTCTATTA	-0.0806
CAATGTAC	0.195
GGATCAAC	0.0032
GATGACTA	-0.0556
ATACTAGC	0.144
AACGTTAA	0.137
ATTAGGAA	-0.00879
AGCGGACT	-0.229
GATTTCCC	0.0168
CGGCTAAC	-0.0264
ATTTACAC	-0.168
CCCCATTA	-0.181
GAATGTAC	0.342
CCGGCCAG	-0.0305
GATAGAAC	0.0707
ATTGCTGA	0.0857
AGATCTTC	-0.0799
ATCCGGAC	0.297
AAGAACGC	0.0215
CTCGAGCC	-0.128

Sequence	PBM E-score
ATTGGTTG	-0.0366
ATAAAAAT	0.231
CTGTAATA	0.0133
CCCGGGGA	-0.166
AATATCAA	0.0702
AGCTTGGA	-0.105
ACAGGTCC	-0.155
TAACACAA	0.0505
AGACAAGA	0.3
CGGTAGAC	0.0116
AACGTCCT	0.139
AATTGCGA	0.00719
GCTGCCGA	-0.216
CCGCCTAA	-0.0211
GTACTCTA	-0.132
GAACACTC	-0.0457
CTTTCGCC	-0.122
ACAACGCT	-0.0576
AGTAGGTA	0.106
GAAAGTTC	-0.0389
GATCGAAA	0.0195
GAAGATTC	0.0393
AAGAGTTC	-0.152
TCCTTCGA	0.11
ATAAGGTA	-0.0641

Sequence	PBM E-score
AGGTCCGG	0.041
ACAGAACG	-0.0147
CTCCGCTA	-0.184
AAGTCCGC	0.191
CGCCTGCC	-0.287
GCTACCGA	-0.00569
AAGCTCAT	-0.152
GCTCTCAC	-0.29
CCTCACCC	-0.21
AGGATCCA	-0.078
AACCTCTT	0.109
AACGCTAC	-0.137
GCAAATCA	0.0766
ATATCGTC	0.00135
CCGAGAAC	0.167
ACGCTGCA	-0.169
GGATCGAA	-0.0395
CAACCGTA	-0.205
AAATAGCG	0.187
CGCTATCA	-0.112
GACGCACC	0.0166
CAAAACTA	0.193
AATCCTCA	-0.23
AAGCTGCC	-0.0824
ACCTTGTA	0.0634

Sequence	PBM E-score
GTCGGTGA	-0.109
GATCCCTA	-0.227
CACGAAAA	0.233
AACTCCCA	-0.0752
ACACCTTG	0.0444
AGGCCTAA	0.126
ATAATATG	0.137
CCCCTGTC	-0.221
CCGTTTTC	0.072
AACCCCGT	0.0235
ACACTTAA	0.00712
ATGTAGGG	-0.0843
CTTGCTAC	0.00039
ACTGGATA	0.0615
AGTTAATG	0.138
ACGTGGTC	-0.153
CCCACGCA	-0.0468
ATTAATCC	0.0592
TCTGCTAA	0.0829
CATCGCGC	-0.0919
GCCTACGC	-0.059
CTCGCAAC	-0.0112
AATAATAG	-0.0638
ACGTGGTA	-0.0538
CAAAAAAG	0.203

Sequence	PBM E-score
AAAGTATG	0.00803
GATACCAA	0.0965
CTTGACGA	-0.0252
CGAGTCGA	-0.0283
TCGTTTCA	0.151
CGGGAGAG	-0.127
ACATTGCC	0.172
GATACTCC	-0.0781
AGCGAATC	0.03
AAACAGTC	-0.209
CAGTATAA	0.236
GCCTAGAC	-0.124
AAATTGAA	0.147
AGGAGGGG	-0.26
GCACATTA	-0.0601
AACTCGCA	0.0398
CTCACGAA	-0.0922
AAGAGAAC	-0.00781
CCTAGCCA	-0.0603
ATATGGGA	-0.0277
CCATGGAG	-0.119
CAAAGAAG	0.033
AGCGGGTC	-0.119
GACAGAAA	0.291
GACAGCAC	0.13

Sequence	PBM E-score
CGCAGCAG	0.0309
AGGCAGGA	0.00037
GTGCCGAA	0.0855
AGTTGTAC	0.157
CGAGAGTC	-0.131
AAGAACAG	-0.0452
ATCTGTCC	0.387
CGGCTTAC	0.051
AAGGAAAT	-0.00737
ACTCCTCT	-0.137
CTGGGCAC	-0.185
CATACTAA	0.234
CTATTCTC	-0.0396
ACTGATAA	0.103
TAGAGATA	-0.0154
CCGACGTC	0.0553
CGCTCTTA	0.176
CTGACCCA	-0.239
GCGGCACC	0.00386
